# Results: PubChem BioAssay (NCATS)
# “And” between values parts separate entries of the source, which are not always exact repeats. Equal entries are not always repeated. Inconclusive results, whose numbers are uncertain, are shown with a selection of clear calls. A potency beside an inconclusive call is a rough fit, not a confirmed value. A structure can be active in one record and inactive in another. The source made the active and inactive calls. Unless noted, calls come from the whole dose curve; as a rule, active = well fitted curve in the direction sought with a large enough effect; inconclusive = small, poorly fitted or top-dose-only effect, or another doubt; inactive = no such curve, though single readings can be large; an effect the other way counts as inactive or inconclusive.
# Legend:
# [1] = qHTS of pediatric cancer cell lines to identify multiple opportunities for drug repurposing: Primary screen for SJ-GBM2 cells (AID 1347091);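 for activity change, negative = cytotoxic: plate controls were DMSO neutral control for no effect and bortezomib for full effect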
# How it was run: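 Cell viability, CellTiter-Glo luminescence; 500-1,000 cells/well, 8- or 11-point titration, 48 h compound exposure at 37 degrees C, 5% CO2. Controls: DMSO neutral, bortezomib 2.3 µM final as positive.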
# [2] = qHTS of pediatric cancer cell lines to identify multiple opportunities for drug repurposing: Primary screen for BT-37 cells (AID 1347094);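 for activity change, negative = cytotoxic: plate controls were DMSO for no effect and bortezomib for full effect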
# How it was run: (§1)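 Cells seeded at 500-1,000 cells/well in growth media, rested 5 hours at 37 degrees C, 5% CO2, then dosed; MIPE compounds at 11-point (from 0.78 nM) and NPC at 8-point (from 0.59 nM) final concentrations. Viability by CellTiter-Glo luminescence after 48 hours.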
# [3] = qHTS of pediatric cancer cell lines to identify multiple opportunities for drug repurposing: Primary screen for NB1643 cells (AID 1347099); note: nearly all actives have a fitted effect of over 50% in size;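 for activity change, negative = cytotoxic: plate controls were DMSO neutral control for no effect and bortezomib positive control for full effect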
# How it was run: as §1
# [4] = qHTS of pediatric cancer cell lines to identify multiple opportunities for drug repurposing: Primary screen for BT-12 cells (AID 1347101); note: nearly all actives have a fitted effect of over 25% in size;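 for activity change, negative = cytotoxic: plate controls were DMSO for no effect and bortezomib positive control for full effect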
# How it was run: (§2)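 Cells (500-1,000/well) rested 5 h, then received compounds for 48 h; metabolically active cells were measured by CellTiter-Glo luminescence. Final concentrations spanned up to 46 µM (MIPE, 11-point) or 0.59 nM-46 µM (NPC, 8-point) in primary screens, 11-point in follow-ups.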
# [5] = qHTS of pediatric cancer cell lines to identify multiple opportunities for drug repurposing: Primary screen for Rh41 cells (AID 1347108); note: nearly all actives have a fitted effect of over 70% in size;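 for activity change, negative = cytotoxic: luminescence drop marks cytotoxic hits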
# How it was run: as §1
# [6] = A High-Content qHTS Against Drug Library for the Identification of Small Molecules that Inhibit DYT1 Early Onset Primary Dystonia-Associated Cell Pathology (AID 1645839; calls by dose curve)
# How it was run: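 In this high-content image screen, delE TorsinA mislocalization in inducible Flp-In 293 cells is scored as %pathology, with cell count serving as the counterscreen. Compound exposure lasts 48 h under tetracycline induction in reduced-serum medium.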
# [7] = target: Cytochrome P450 2C9 (Homo sapiens) (UniProt P11712); assay: Cytochrome P450 family 2 subfamily C member 9 (CYP2C9) small molecule antagonists: luciferase biochemical (cell-free) qHTS assay (AID 1645842; active = well fitted curve in the direction sought with a large enough effect in the repeat runs; inconclusive = weak or mixed curves; inactive = no such curve, though single readings can be large; an effect the other way counts as inactive or inconclusive; note: nearly all actives have a fitted effect of over 55% in size)
# How it was run: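 Luminescence, after 20 min with luciferin detection reagent, reflected CYP2C9 turnover during a 1 h NADPH-driven reaction at 37C. Enzyme-substrate mix contained 0.4% bovine serum albumin and was preincubated with compound 10 min at room temperature.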
# UISO = assay: qHTS assay to identify novel small-molecules to repurpose for Merkel cell carcinoma treatment (AID 1296009); details: MCC and control cell lines, CellTiter-Glo viability, 72 h; activity change, negative = cytotoxicity: at 46 µM (top of the series); note: nearly all actives have a fitted effect of over 60% in size; for activity change, negative = cytotoxicity: % is set by controls: 0 for no effect and ±100 for the full control effect
# How it was run: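 After compound transfer in DMSO, plates were kept 72 hr at 37 degree celsius. Luminescent ATP signal from CellTiter-Glo served as viability measure, normalized against DMSO and no-cell controls.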
# [8] = Drug repurposing screens with cells derived from glioblastoma tumor samples (AID 1345199); details: GBM patient neurospheres viability, ATP luminescence, 48 h; Potency: tumour line A unless noted; activity, negative = cell killing: at 46 µM (top of the series), tumour line A unless noted; note: nearly all actives have a fitted effect of over 40% in size; for activity, negative = cell killing: % is set by controls: 0 for no effect and ±100 for the full control effect
# How it was run: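 Four patient lines of CD133+ GBM neurospheres were screened at several concentrations; hits were retested in those lines plus three slower-growing GBM lines, using 48-hour treatment and ATP-based viability.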
# [9] = qHTS of pediatric cancer cell lines to identify multiple opportunities for drug repurposing: Primary screen for SK-N-MC cells (AID 1347093); details: SK-N-MC viability, CellTiter-Glo luminescence, 48 h; activity change, negative = cytotoxic: at 46 µM (top of the series);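 for activity change, negative = cytotoxic: plate controls were DMSO neutral control for no effect and bortezomib for full effect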
# How it was run: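 Metabolically active cells were quantified by ATP-dependent luminescence (CellTiter-Glo, 15 min at room temperature) following 48 h treatment. Cells had been plated at 500-1,000 per well and settled for 5 h beforehand.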
# [10] = qHTS of pediatric cancer cell lines to identify multiple opportunities for drug repurposing: Primary screen for OHS-50 cells (AID 1347103); note: nearly all actives have a fitted effect of over 40% in size;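 for activity change, negative = cytotoxic: plate controls were DMSO neutral control for no effect and bortezomib positive control for full effect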
# How it was run: as §2
# [11] = target: Glutathione peroxidase 1 (Homo sapiens) (UniProt P07203); assay: Primary qHTS Assay for Inhibitors of Recombinant Selenoprotein Glutathione Peroxidase 1 (GPX1) (AID 1845191); details: activity, negative = inhibition: at 48.8 µM (top of the series); note: nearly all actives have a fitted effect of over 65% in size
# How it was run: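 10 nM GPX1 + cpd, 30 min RT; start w/ 1 mM GSH, 0.5 mM cumene hydroperoxide, 0.5 mM NADPH, 100 nM GR, 0.01% BSA; buffer 50 mM Tris-HCl pH 7.5, 2 mM EDTA, 150 mM NaCl; Fl 340/450, 0 & 15 min.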
# CP335 = assay: qHTS profiling for inhibitors of Plasmodium falciparum proliferation (AID 504749); note: nearly all actives have a fitted effect of over 60% in size;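 for activity, negative = inhibition: 0% = DMSO vehicle and full inhibition = artemisinin control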; details: P. falciparum in erythrocytes, SYBR Green DNA, 72 h; series mostly up to 28.7 µM
# How it was run: (§3)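 Three-day growth assay of blood-stage parasites in erythrocytes (0.3% parasitemia, 2.5% hematocrit) at 37 C, 5% CO2, quantified by SYBR Green DNA staining after overnight detergent lysis.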
# GB4 = assay: as above; details: P. falciparum in erythrocytes, SYBR Green DNA, 72 h; series mostly up to 28.7 µM
# How it was run: as §3
# [12] = qHTS of pediatric cancer cell lines to identify multiple opportunities for drug repurposing: Primary screen for SK-N-SH cells (AID 1347098); details: SK-N-SH viability, CellTiter-Glo luminescence, 48 h; activity change, negative = cytotoxic: at 57 µM (top of the series); note: nearly all actives have a fitted effect of over 65% in size; for activity change, negative = cytotoxic: % is set by controls: 0 for no effect and ±100 for the full control effect
# How it was run: as §2
# [13] = qHTS of pediatric cancer cell lines to identify multiple opportunities for drug repurposing: Primary screen for Saos-2 cells (AID 1347097); details: Saos-2 viability, CellTiter-Glo ATP luminescence, 48 h; activity change, negative = cytotoxic: at 46 µM (top of the series); note: nearly all actives have a fitted effect of over 40% in size; for activity change, negative = cytotoxic: % is set by controls: 0 for no effect and ±100 for the full control effect
# How it was run: as §1
# [14] = target: Cytochrome P450 2D6 (Homo sapiens) (UniProt P10635); assay: Cytochrome P450 family 2 subfamily D member 6 (CYP2D6) small molecule antagonists: luciferase biochemical (cell-free) qHTS assay (AID 1645840; active = well fitted curve in the direction sought with a large enough effect in the repeat runs; inconclusive = weak or mixed curves; inactive = no such curve, though single readings can be large; an effect the other way counts as inactive or inconclusive; note: nearly all actives have a fitted effect of over 55% in size)
# How it was run: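 P450-Glo luminescent screen: recombinant CYP2D6 enzyme–proluciferin substrate mix preincubated with compound 10 min at room temperature, then NADPH regeneration added for 1 h at room temperature. Detection reagent added for 20 min; luciferin light read as relative luminescence units.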
# Potency is the fitted concentration of half-maximal effect; tags give direction and shape of the fitted curve.
# UniProt P10635, sequence (P10635 whole entry, looked up): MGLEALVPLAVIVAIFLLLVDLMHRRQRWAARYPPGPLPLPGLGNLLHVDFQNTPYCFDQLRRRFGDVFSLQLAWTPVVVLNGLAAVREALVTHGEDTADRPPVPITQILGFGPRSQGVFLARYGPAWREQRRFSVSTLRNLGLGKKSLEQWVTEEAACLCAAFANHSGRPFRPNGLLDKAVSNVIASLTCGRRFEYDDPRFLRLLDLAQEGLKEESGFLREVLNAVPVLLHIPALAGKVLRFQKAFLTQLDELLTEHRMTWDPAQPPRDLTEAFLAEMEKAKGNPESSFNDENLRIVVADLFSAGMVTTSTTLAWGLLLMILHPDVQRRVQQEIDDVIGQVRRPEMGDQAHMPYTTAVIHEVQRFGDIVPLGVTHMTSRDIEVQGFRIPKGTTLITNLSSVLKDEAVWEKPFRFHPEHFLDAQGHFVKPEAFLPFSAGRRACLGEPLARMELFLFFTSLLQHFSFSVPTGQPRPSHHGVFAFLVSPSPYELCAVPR
# UniProt P11712, sequence (P11712 whole entry, looked up): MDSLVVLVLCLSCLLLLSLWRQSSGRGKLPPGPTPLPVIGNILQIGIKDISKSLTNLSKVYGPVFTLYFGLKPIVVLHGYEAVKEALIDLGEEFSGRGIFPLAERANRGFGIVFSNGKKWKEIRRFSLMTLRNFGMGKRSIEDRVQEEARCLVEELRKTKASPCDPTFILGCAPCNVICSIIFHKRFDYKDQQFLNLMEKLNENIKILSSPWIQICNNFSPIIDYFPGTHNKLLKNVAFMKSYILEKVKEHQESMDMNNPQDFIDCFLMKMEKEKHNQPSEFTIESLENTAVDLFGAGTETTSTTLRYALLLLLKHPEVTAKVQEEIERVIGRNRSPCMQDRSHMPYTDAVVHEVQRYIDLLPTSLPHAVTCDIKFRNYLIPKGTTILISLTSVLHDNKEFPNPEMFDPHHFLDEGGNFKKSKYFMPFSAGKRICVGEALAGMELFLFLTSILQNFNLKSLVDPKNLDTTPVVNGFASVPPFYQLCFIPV
# UniProt P07203, sequence (P07203 whole entry, looked up): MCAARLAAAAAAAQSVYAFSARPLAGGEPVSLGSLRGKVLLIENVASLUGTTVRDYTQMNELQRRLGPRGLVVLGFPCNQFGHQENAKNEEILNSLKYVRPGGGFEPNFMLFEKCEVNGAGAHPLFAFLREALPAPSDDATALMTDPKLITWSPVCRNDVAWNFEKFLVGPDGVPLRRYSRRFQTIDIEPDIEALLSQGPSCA
smiles,measurement,setting,value
CN1CCC(N(Cc2cccs2)c2ccccc2)CC1,Potency,[1],"inconclusive: 18.8 µM [cytotoxic, single point]"
same,Potency,[2],"inconclusive: 24.6 µM [cytotoxic, partial curve, poor fit]"
same,Potency,[3],"inconclusive: 16.8 µM [cytotoxic, single point]"
same,Potency,[4],active: 21.9 µM
same,Potency,[5],"inconclusive: 23.7 µM [cytotoxic, single point]"
same,Potency,[6],"inconclusive: 11.2 µM [inhibitor, partial curve, poor fit]"
same,Potency,[7],inactive
same,Potency,UISO,"inconclusive: 11.9 µM [inhibitor, single point]"
same,Potency,[8],active: 10 µM
COc1cccc2c1C(=O)c1c(O)c3c(c(O)c1C2=O)C[C@@](O)(C(=O)CO)C[C@@H]3O[C@H]1C[C@H](N)[C@H](OC2CCCCO2)[C@H](C)O1 (some centres undefined),Potency,[9],active: 0.833 µM
same,Potency,[2],active: 1.93 µM
same,Potency,[3],"inconclusive: 10.5 µM [cytotoxic, single point]"
same,Potency,[4],active: 2.43 µM
same,Potency,[10],"inconclusive: 3.85 µM [cytotoxic, full curve, poor fit]"
same,Potency,[5],"inconclusive: 1.48 µM [cytotoxic, full curve, poor fit]"
same,Potency,[11],"inconclusive: 29 µM [inhibitor, single point] and inconclusive: 16.3 µM [inhibitor, single point]"
same,Potency,CP335,active: 3.01 µM
same,Potency,GB4,active: 4.78 µM
Nc1nc(NCCNc2ncc(-n3ccnc3)c(-c3ccc(Cl)cc3Cl)n2)ccc1[N+](=O)[O-],Potency,[2],"inconclusive: 34.3 µM [cytotoxic, single point]"
same,Potency,[12],"inconclusive: 27.1 µM [cytotoxic, single point]"
same,Potency,[5],"inconclusive: 14.8 µM [cytotoxic, partial curve]"
same,Potency,[7],active: 0.134 µM
O=C(OCC(O)CO)c1ccccc1Nc1ccnc2c(C(F)(F)F)cccc12 (centres undefined),Potency,[13],"inconclusive: 23.7 µM [cytotoxic, single point]"
same,Potency,[12],"inconclusive: 24.4 µM [cytotoxic, single point]"
same,Potency,[4],"inconclusive: 13.8 µM [cytotoxic, single point]"
same,Potency,[10],"inconclusive: 17.4 µM [cytotoxic, single point]"
Nc1nc2ccccc2n1Cc1ccc(F)cc1,Potency,[12],inactive
same,Potency,[4],"inconclusive: 19.5 µM [cytotoxic, partial curve]"
same,Potency,[5],"inconclusive: 9.44 µM [cytotoxic, partial curve, poor fit]"
same,Potency,[6],inactive
same,Potency,UISO,"inconclusive: 16.8 µM [inhibitor, partial curve, poor fit]"
O=[N+]([O-])c1cncn1CCN1CCOCC1,Potency,[1],inactive
same,Potency,[3],inactive
same,Potency,[6],"inconclusive: 35.5 µM [inhibitor, single point]"
CN(C(=O)CN(CCO)CC(=O)N(C)C(C)(C)Cc1ccccc1)C(C)(C)Cc1ccccc1,Potency,[1],"inconclusive: 15 µM [cytotoxic, partial curve]"
same,Potency,[9],"inconclusive: 29.9 µM [cytotoxic, single point]"
same,Potency,[2],"inconclusive: 19.5 µM [cytotoxic, partial curve]"
same,Potency,[13],"inconclusive: 26.6 µM [cytotoxic, single point]"
same,Potency,[12],"inconclusive: 38.6 µM [cytotoxic, single point]"
same,Potency,[3],"inconclusive: 8.41 µM [cytotoxic, partial curve]"
same,Potency,[5],inactive
same,Potency,[6],"inconclusive: 11.2 µM [inhibitor, partial curve, poor fit]"
same,Potency,[14],active: 1.38 µM
same,Potency,CP335,"inconclusive: 7.21 µM [inhibitor, partial curve, poor fit]"
same,Potency,GB4,"inconclusive: 7.21 µM [inhibitor, single point]"
NS(=O)(=O)c1cc2c(cc1Cl)NC(C1CC3C=CC1C3)NS2(=O)=O (centres undefined),Potency,[1],inactive
same,Potency,[13],inactive
same,Potency,[4],inactive
same,Potency,[10],inactive
same,Potency,[14],"inconclusive: 27.5 µM [inhibitor, single point]"
same,Potency,[7],"inconclusive: 13.8 µM [inhibitor, partial curve]"
same,Potency,GB4,inactive
same,Potency,UISO,inactive
same,Potency,[8],inactive
N#C/C(=C1/SC[C@@H](c2ccc(Cl)cc2Cl)S1)n1ccnc1,Potency,[1],"inconclusive: 23.7 µM [cytotoxic, single point]"
same,Potency,[2],"inconclusive: 19.5 µM [cytotoxic, partial curve]"
same,Potency,[13],"inconclusive: 26.6 µM [cytotoxic, single point]"
same,"activity change, negative = cytotoxic",[12],inconclusive: -31.6% [cytotoxic]
same,Potency,[3],"inconclusive: 18.8 µM [cytotoxic, single point]"
same,Potency,[4],"inconclusive: 15.5 µM [cytotoxic, partial curve]"
same,Potency,[10],"inconclusive: 30.9 µM [cytotoxic, single point]"
same,Potency,[5],"inconclusive: 15 µM [cytotoxic, single point]"
same,Potency,UISO,"inconclusive: 13.3 µM [inhibitor, partial curve]"
same,Potency,[8],active: 11.2 µM and active: 20 µM
CCCCOCCOCCOCc1cc2c(cc1CCC)OCO2,Potency,[1],inactive
same,Potency,[2],inactive
same,Potency,[13],"inconclusive: 26.6 µM [cytotoxic, single point]"
same,Potency,[4],"inconclusive: 22.8 µM [cytotoxic, partial curve, poor fit]"
same,Potency,[10],"inconclusive: 25.6 µM [cytotoxic, partial curve] and inconclusive: 11 µM [cytotoxic, partial curve, poor fit]"
same,Potency,CP335,inactive
same,Potency,[8],"inconclusive: 39.8 µM [inhibitor, partial curve, poor fit]"
COc1cc2c(Nc3ccc(Cl)c(Cl)c3F)ncnc2cc1OCC1C[C@@H]2CN(C)C[C@H]2C1,Potency,[1],active: 7.43 µM
same,Potency,[13],active: 16.6 µM
same,Potency,[4],active: 24.3 µM
same,Potency,[5],active: 9.35 µM
O=C(O)CC(O)C(=O)O (centres undefined),Potency,[2],inactive
same,Potency,[4],inactive
same,Potency,[10],inactive
same,Potency,[14],inactive
same,Potency,UISO,inactive
same,Potency,[8],inactive
Cc1ccccc1C(OCCN(C)C)c1ccccc1 (centres undefined),Potency,[12],"inconclusive: 38.6 µM [cytotoxic, single point] and inconclusive: 27.1 µM [cytotoxic, partial curve, poor fit]"
same,Potency,[4],"inconclusive: 19.5 µM [cytotoxic, partial curve, poor fit]"
same,Potency,[10],"inconclusive: 17.4 µM [cytotoxic, partial curve] and inconclusive: 21.7 µM [cytotoxic, partial curve]"
same,Potency,CP335,"inconclusive: 10.7 µM [inhibitor, single point]"
same,Potency,GB4,"inconclusive: 1.9 µM [inhibitor, full curve]"
same,Potency,UISO,inactive
C[N+]1(C)CCC(=C(c2ccccc2)c2ccccc2)CC1,Potency,[13],inactive
same,Potency,[4],inactive
same,Potency,CP335,"inconclusive: 7.21 µM [inhibitor, single point]"
same,Potency,GB4,"inconclusive: 8.09 µM [inhibitor, single point]"
same,Potency,UISO,"inconclusive: 33.5 µM [inhibitor, single point]"
same,Potency,[8],"inconclusive: 0.891 µM [inhibitor, full curve]"
CC(C)CCCC(C)CCCC(C)CCCCC(C)CCCC(C)CCCC(C)C (centres undefined),Potency,[9],inactive
same,Potency,[2],inactive
same,Potency,[3],inactive
COc1ccc(-n2nc(CCC(=O)N(C)O)cc2-c2ccc(Cl)cc2)cc1,Potency,[1],"inconclusive: 29.9 µM [cytotoxic, single point]"
same,Potency,[2],"inconclusive: 24.6 µM [cytotoxic, single point]"
same,Potency,[13],"inconclusive: 15 µM [cytotoxic, single point]"
same,Potency,[12],"inconclusive: 10.9 µM [cytotoxic, partial curve, poor fit]"
same,Potency,[4],"inconclusive: 24.6 µM [cytotoxic, partial curve]"
same,Potency,[5],"inconclusive: 11.9 µM [cytotoxic, single point]"
same,Potency,[6],"inconclusive: 0.562 µM [inhibitor, full curve, poor fit]"
same,Potency,UISO,"inconclusive: 18.8 µM [inhibitor, single point]"
CCC(=O)Oc1ccc2c(c1)CC[C@@H]1[C@@H]2CC[C@@]2(C)[C@H]1C[C@@H](OC(=O)CC)[C@@H]2OC(=O)CC,Potency,[2],inactive
same,Potency,[10],"inconclusive: 24.6 µM [cytotoxic, partial curve, poor fit]"
same,Potency,[14],"inconclusive: 8.71 µM [inhibitor, partial curve, poor fit]"
CC(=O)Nc1ccc(CC(=O)O)cc1,Potency,[2],inactive
same,Potency,[10],inactive
